From the supplement of paper PMC8728848
The list shows a part of the results.

What was measured:
Assay in all cases: glycan array binding signal (z-score within array); higher = stronger binding
Settings in all cases: glycan notation: IUPAC condensed, linker removed
[1] = target: Gal(a1-4)Gal(b1-4)GlcNAc(b1-2)Man(a1-3)[Gal(a1-4)Gal(b1-4)GlcNAc(b1-2)Man(a1-6)]Man(b1-4)GlcNAc(b1-4)GlcNAc
Summary of the method: (§1)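 Glycan array binding is given as a within-array Z-score, which can be read as non-binding when negative. The arrays, 3228 of them, came from the Consortium for Functional Glycomics database and were retained only where the protein sequence was available. Z-scores were averaged across arrays of the same protein sequence at different concentrations or buffers and across linkers.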

[2] = target: Gal(a1-4)Gal(b1-4)GlcNAc(b1-3)Gal(b1-4)Glc
Summary of the method: as §1

Gal(a1-4)GlcNAc = target: Gal(a1-4)GlcNAc
Summary of the method: as §1

Gal(a1-6)Glc = target: Gal(a1-6)Glc
Summary of the method: as §1

Gal(b1-2)Gal = target: Gal(b1-2)Gal
Summary of the method: as §1

Gal(b1-3)Gal = target: Gal(b1-3)Gal
Summary of the method: as §1

Gal(b1-3)Gal(b1-4)GlcNAc = target: Gal(b1-3)Gal(b1-4)GlcNAc
Summary of the method: as §1

[3] = target: Gal(b1-3)Gal(b1-4)GlcNAc(b1-2)Man(a1-3)[Gal(b1-3)Gal(b1-4)GlcNAc(b1-2)Man(a1-6)]Man(b1-4)GlcNAc(b1-4)GlcNAc
Summary of the method: as §1

Gal(b1-3)GalNAc = target: Gal(b1-3)GalNAc
Summary of the method: as §1

[4] = target: Gal(b1-3)GalNAc(a1-3)[Fuc(a1-2)]Gal(b1-4)Glc
Summary of the method: as §1

[5] = target: Gal(b1-3)GalNAc(a1-3)[Fuc(a1-2)]Gal(b1-4)GlcNAc
Summary of the method: as §1

Gal(b1-3)GalNAc(b1-3)Gal = target: Gal(b1-3)GalNAc(b1-3)Gal
Summary of the method: as §1

[6] = target: Gal(b1-3)GalNAc(b1-3)Gal(a1-4)Gal(b1-4)Glc
Summary of the method: as §1

[7] = target: Gal(b1-3)GalNAc(b1-4)Gal(b1-4)Glc
Summary of the method: as §1

[8] = target: Gal(b1-3)GalNAc(b1-4)[Neu5Ac(a2-3)]Gal(b1-4)Glc
Summary of the method: as §1

Gal(b1-3)GlcNAc = target: Gal(b1-3)GlcNAc
Summary of the method: as §1

[9] = target: Gal(b1-3)GlcNAc(a1-3)Gal(b1-4)GlcNAc
Summary of the method: as §1

[10] = target: Gal(b1-3)GlcNAc(a1-6)Gal(b1-4)GlcNAc
Summary of the method: as §1

Gal(b1-3)GlcNAc(b1-2)Man = target: Gal(b1-3)GlcNAc(b1-2)Man
Summary of the method: as §1

[11] = target: Gal(b1-3)GlcNAc(b1-2)Man(a1-3)[Gal(b1-3)GlcNAc(b1-2)Man(a1-6)]Man(b1-4)GlcNAc(b1-4)GlcNAc
Summary of the method: as §1

[12] = target: Gal(b1-3)GlcNAc(b1-2)Man(a1-3)[Gal(b1-3)GlcNAc(b1-2)Man(a1-6)]Man(b1-4)GlcNAc(b1-4)[Fuc(a1-6)]GlcNAc
Summary of the method: as §1

[13] = target: Gal(b1-3)GlcNAc(b1-2)Man(a1-3)[GlcNAc(b1-4)][Gal(b1-3)GlcNAc(b1-2)Man(a1-6)]Man(b1-4)GlcNAc(b1-4)GlcNAc
Summary of the method: as §1

[14] = target: Gal(b1-3)GlcNAc(b1-2)[Gal(b1-3)GlcNAc(b1-6)]Man(a1-6)[Gal(b1-3)GlcNAc(b1-2)Man(a1-3)]Man(b1-4)GlcNAc(b1-4)GlcNAc
Summary of the method: as §1

[15] = target: Gal(b1-3)GlcNAc(b1-3)Gal(b1-3)GlcNAc
Summary of the method: as §1

[16] = target: Gal(b1-3)GlcNAc(b1-3)Gal(b1-4)Glc
Summary of the method: as §1

[17] = target: Gal(b1-3)GlcNAc(b1-3)Gal(b1-4)GlcNAc
Summary of the method: as §1

[18] = target: Gal(b1-3)GlcNAc(b1-3)Gal(b1-4)GlcNAc(b1-2)Man(a1-3)[Gal(b1-3)GlcNAc(b1-3)Gal(b1-4)GlcNAc(b1-2)Man(a1-6)]Man(b1-4)GlcNAc(b1-4)GlcNAc
Summary of the method: as §1

[19] = target: Gal(b1-3)GlcNAc(b1-3)Gal(b1-4)GlcNAc(b1-2)[Gal(b1-3)GlcNAc(b1-3)Gal(b1-4)GlcNAc(b1-6)]Man(a1-6)[Gal(b1-3)GlcNAc(b1-3)Gal(b1-4)GlcNAc(b1-2)Man(a1-3)]Man(b1-4)GlcNAc(b1-4)[Fuc(a1-6)]GlcNAc
Summary of the method: as §1

[20] = target: Gal(b1-3)GlcNAc(b1-3)Gal(b1-4)GlcNAc(b1-3)Gal(b1-4)GlcNAc(b1-2)[Gal(b1-3)GlcNAc(b1-3)Gal(b1-4)GlcNAc(b1-3)Gal(b1-4)GlcNAc(b1-6)]Man(a1-6)[Gal(b1-3)GlcNAc(b1-3)Gal(b1-4)GlcNAc(b1-3)Gal(b1-4)GlcNAc(b1-2)Man(a1-3)]Man(b1-4)GlcNAc(b1-4)[Fuc(a1-6)]GlcNAc
Summary of the method: as §1

[21] = target: Gal(b1-3)GlcNAc(b1-3)Gal(b1-4)GlcNAc(b1-6)[Gal(b1-3)GlcNAc(b1-3)]Gal(b1-4)Glc
Summary of the method: as §1

[22] = target: Gal(b1-3)GlcNAc(b1-3)Gal(b1-4)[Fuc(a1-3)]GlcNAc(b1-6)[Gal(b1-3)GlcNAc(b1-3)]Gal(b1-4)Glc
Summary of the method: as §1

[23] = target: Gal(b1-3)GlcNAc(b1-3)GalNAc
Summary of the method: as §1

[24] = target: Gal(b1-3)GlcNAc(b1-6)Gal(b1-4)GlcNAc
Summary of the method: as §1

[25] = target: Gal(b1-3)GlcNAc(b1-6)GalNAc
Summary of the method: as §1

[26] = target: Gal(b1-3)GlcNAc(b1-6)[Gal(b1-3)]GalNAc
Summary of the method: as §1

Gal(b1-3)GlcNAc6S = target: Gal(b1-3)GlcNAc6S
Summary of the method: as §1

[27] = target: Gal(b1-3)[Fuc(a1-4)]GlcNAc
Summary of the method: as §1

B1: Gal 4 (Mus musculus), P56470 (protein)
chain: MAYVPAPGYQPTYNPTLPYYQPIPGGLNVGMSVYIQGVASEHMKRFFVNFVVGQDPGSDVAFHFNPRFDGWDKVVFNTLQGGKWGSEERKRSMPFKKGAAFELVFIVLAEHYKVVVNGNPFYEYGHRLPLQMVTHLQVDGDLQLQSINFIGGQPLRPQGPPMMPPYPGPGHCHQQLNSLPTMEGPPTFNPPVPYFGRLQGGLTARRTIIIKGYVPPTGKSFAINFKVGSSGDIALHINPRMGNGTVVRNSLLNGSWGSEEKKITHNPFGPGQFFDLSIRCGLDRFKVYANGQHLFDFAHRLSAFQRVDTLEIQGDVTLSYVQI
glycan array binding signal (z-score) [1]: -0.229
glycan array binding signal (z-score) [2]: 0.328
glycan array binding signal (z-score) (Gal(a1-4)GlcNAc): -0.243
glycan array binding signal (z-score) (Gal(a1-6)Glc): -0.242
glycan array binding signal (z-score) (Gal(b1-2)Gal): -0.235
glycan array binding signal (z-score) (Gal(b1-3)Gal): -0.129
glycan array binding signal (z-score) (Gal(b1-3)Gal(b1-4)GlcNAc): 0.038
glycan array binding signal (z-score) [3]: 0.271
glycan array binding signal (z-score) (Gal(b1-3)GalNAc): -0.204
glycan array binding signal (z-score) [4]: 4.95
glycan array binding signal (z-score) [5]: 3.84
glycan array binding signal (z-score) (Gal(b1-3)GalNAc(b1-3)Gal): 1.06
glycan array binding signal (z-score) [6]: -0.219
glycan array binding signal (z-score) [7]: 0.059
glycan array binding signal (z-score) [8]: -0.169
glycan array binding signal (z-score) (Gal(b1-3)GlcNAc): -0.228
glycan array binding signal (z-score) [9]: -0.242
glycan array binding signal (z-score) [10]: -0.236
glycan array binding signal (z-score) (Gal(b1-3)GlcNAc(b1-2)Man): -0.334
glycan array binding signal (z-score) [11]: -0.181
glycan array binding signal (z-score) [12]: -0.188
glycan array binding signal (z-score) [13]: -0.308
glycan array binding signal (z-score) [14]: -0.173
glycan array binding signal (z-score) [15]: 0.346
glycan array binding signal (z-score) [16]: 0.159
glycan array binding signal (z-score) [17]: -0.148
glycan array binding signal (z-score) [18]: -0.204
glycan array binding signal (z-score) [19]: -0.277
glycan array binding signal (z-score) [20]: -0.2
glycan array binding signal (z-score) [21]: -0.135
glycan array binding signal (z-score) [22]: -0.161
glycan array binding signal (z-score) [23]: -0.241
glycan array binding signal (z-score) [24]: -0.211
glycan array binding signal (z-score) [25]: -0.316
glycan array binding signal (z-score) [26]: -0.307
glycan array binding signal (z-score) (Gal(b1-3)GlcNAc6S): 3.23
glycan array binding signal (z-score) [27]: -0.213
